{"source": "PubChem BioAssay AID588342", "about": "(National Center for Advancing Translational Sciences (NCATS), 2011)", "note": "“And” between values parts separate entries of the source, which are not always exact repeats. Equal values may be shown once. The campaign covered roughly 360,000 compounds. About 25,000 (6.9%) were called active. Inconclusive results, whose numbers are uncertain, are shown with a selection of clear calls. Calls follow the shape of the dose curve; as a rule, active = well fitted inhibition curve with a large enough effect; inconclusive = small, poorly fitted or top-dose-only effect; inactive = flat fitted curve, though single readings scatter. Potencies of inconclusive entries are doubtful fits and often do not repeat. Potency is read from the fitted curve at half-maximal effect; tags tell the direction and shape of the fitted curve.", "data": [{"biological_target": "Luciferin 4-monooxygenase (Photinus pyralis) (UniProt P08659)", "sequence (P08659 whole entry, looked up)": "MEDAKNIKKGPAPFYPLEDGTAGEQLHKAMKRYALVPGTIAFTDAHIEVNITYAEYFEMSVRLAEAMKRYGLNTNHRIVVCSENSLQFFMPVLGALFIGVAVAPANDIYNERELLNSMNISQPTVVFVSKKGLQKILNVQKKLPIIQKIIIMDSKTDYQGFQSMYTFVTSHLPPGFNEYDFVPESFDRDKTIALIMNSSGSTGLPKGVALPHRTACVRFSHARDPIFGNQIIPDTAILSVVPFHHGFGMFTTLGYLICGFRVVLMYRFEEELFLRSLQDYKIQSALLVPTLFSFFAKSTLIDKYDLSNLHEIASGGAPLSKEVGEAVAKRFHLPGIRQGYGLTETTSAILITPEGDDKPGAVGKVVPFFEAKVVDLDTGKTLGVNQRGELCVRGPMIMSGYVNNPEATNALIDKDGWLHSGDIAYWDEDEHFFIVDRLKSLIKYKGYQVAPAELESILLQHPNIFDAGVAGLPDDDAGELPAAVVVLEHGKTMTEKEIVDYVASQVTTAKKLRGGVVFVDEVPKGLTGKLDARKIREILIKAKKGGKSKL", "test": "qHTS profiling assay for firefly luciferase inhibitor/activator using purifed enzyme and Km concentrations of substrates (counterscreen for miR-21 project); also: nearly all actives have a fitted effect of over 55% in size;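 as to activity change, negative = inhibition: plate controls were vehicle for no effect and reference inhibitor for full effect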", "conditions": "purified FLuc, luminescence inhibition; series mostly up to 57.5 µM; activity change, negative = inhibition: at the top concentration", "in_short": "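Purified P. pyralis luciferase, 10 nM final, with Km-level 10 uM D-luciferin and 10 uM ATP in 50 mM Tris acetate pH 7.5, 10 mM Mg acetate, 0.01% Tween-20, 0.05% BSA; 6-point qHTS titration about 60 µM downward; luminescence read.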", "values": [{"smiles": "CCn1c(NCc2ccc(OC)cc2)nc2ccccc21", "Potency": "inconclusive: 23.9 µM [inhibitor, partial curve, poor fit] and inconclusive: 16.9 µM [inhibitor, partial curve]"}, {"smiles": "Cc1ccc2cc(C#N)c(NCCNC(=S)NCCCN3CCOCC3)nc2c1", "Potency": "inconclusive: 26.9 µM [inhibitor, partial curve, poor fit]"}, {"smiles": "CCCCCn1cc2c(c1-c1ccc(Br)cc1)c(=O)n(C)c(=O)n2C", "activity change, negative = inhibition": "inactive: 2.92%"}, {"smiles": "O=C(Cn1c(=O)oc2cc(Cl)ccc21)Nc1cccc(C(F)(F)F)c1", "activity change, negative = inhibition": "inactive: -2.03%"}, {"smiles": "CCc1ccccc1NC(=O)Cn1c(=O)n(-c2ccc(C)cc2)c(=O)c2c1c1cc(C)ccc1n2C", "activity change, negative = inhibition": "inactive: -1.45%"}, {"smiles": "COc1cc2c(cc1OC)C(C)N(S(=O)(=O)c1ccc(Cl)nc1)CC2", "note": "(stereo unspecified)", "activity change, negative = inhibition": "inactive: 0.755%"}, {"smiles": "O=C(CCNC(=O)c1ccccc1Cl)Nc1cccc(S(=O)(=O)N2CCCCC2)c1", "activity change, negative = inhibition": "inactive: -0.0896%"}, {"smiles": "COc1ccc(N2CCN(C(=O)COC(=O)CNC(=O)c3ccccc3)CC2)cc1", "activity change, negative = inhibition": "inactive: 4.17%"}, {"smiles": "N/C(=N\\OC(=O)C1CCCCC1)c1cccc(Br)c1", "Potency": "inconclusive: 2.69 µM [inhibitor, partial curve]"}, {"smiles": "CC(=O)Nc1ccc(NC(=O)c2ccc(-n3c(C)ccc3C)cc2)cc1", "Potency": "active: 21.3 µM"}, {"smiles": "O=c1oc(-c2ccc([N+](=O)[O-])cc2)nc2ccc(O)cc12", "Potency": "active: 15.1 µM"}, {"smiles": "O=C(NC1CCCCCC1)c1ccc(Br)o1", "Potency": "inconclusive: 37.9 µM [inhibitor, partial curve, poor fit]"}, {"smiles": "CCOC(=O)c1cnc2c(-c3ccc(F)cc3)cnn2c1C(F)(F)F", "Potency": "inconclusive: 37.9 µM [inhibitor, partial curve, poor fit]"}, {"smiles": "Cc1nn(CC(=O)Nc2ccccc2C(F)(F)F)c(=O)c2cccn12", "Potency": "inconclusive: 23.9 µM [inhibitor, partial curve]"}, {"smiles": "N#C/C(=C\\c1ccc(O)c(Br)c1)C(=O)NCc1ccccc1", "Potency": "inconclusive: 23.9 µM [inhibitor, single point]"}, {"smiles": "CC(C)c1ccc(N(C(=O)c2ccc3c(c2)OCO3)C2C=CS(=O)(=O)C2)cc1", "note": "(stereo unspecified)", "activity change, negative = inhibition": "inactive: -0.644%"}, {"smiles": "Cc1cccc(OCCSc2nc(N)cc(N)n2)c1", "Potency": "inconclusive: 26.9 µM [inhibitor, partial curve, poor fit]"}, {"smiles": "Cc1nc2ccc(NC(=O)N3CCSCC3)cc2s1", "Potency": "inconclusive: 37.9 µM [inhibitor, partial curve, poor fit]"}, {"smiles": "Cc1cc(=O)[nH]c(N/N=C/c2ccc(OC(=O)c3cccnc3)cc2)n1", "activity change, negative = inhibition": "inactive: -1.06%"}, {"smiles": "N#CC(C#N)=C(N)/C(C#N)=C/c1cc(O)c(O)c(O)c1", "Potency": "inconclusive: 15.1 µM [inhibitor, partial curve]"}, {"smiles": "CCOC(=O)C1(Cc2ccc(OC)cc2)CCN(C(=O)c2cc(C)on2)CC1", "Potency": "inconclusive: 30.1 µM [inhibitor, partial curve, poor fit]"}, {"smiles": "O=C(Nc1nnc(Cc2ccc(Cl)cc2)s1)c1cccnc1", "Potency": "inconclusive: 21.3 µM [inhibitor, single point]"}, {"smiles": "Cc1ccc(OCc2cc(C(=O)NCC3COCCO3)no2)cc1C", "note": "(stereo unspecified)", "Potency": "inconclusive: 37.9 µM [inhibitor, partial curve, poor fit]"}, {"smiles": "CC(=O)c1cccc(Nc2nc(-c3sc(C)nc3C)cs2)c1", "Potency": "inconclusive: 10.7 µM [inhibitor, partial curve]"}, {"smiles": "O=c1oc(-c2cccs2)nc2ccc(Br)cc12", "Potency": "inconclusive: 4.26 µM [inhibitor, partial curve, poor fit]"}, {"smiles": "O=C(NCCCN1CCCC1=O)C1CCC(CNS(=O)(=O)c2ccc(Cl)cc2)CC1", "note": "(stereo unspecified)", "activity change, negative = inhibition": "inactive: 0.273%"}, {"smiles": "CCCSCCCNC(=O)C1CCCN(c2nn3cc(-c4ccc(OC)cc4)nc3s2)C1", "note": "(stereo unspecified)", "Potency": "inconclusive: 7.57 µM [inhibitor, partial curve]"}, {"smiles": "CCOC(=O)c1c(C)c(C(=O)NCCc2ccccc2)c(C)n1C", "Potency": "inconclusive: 16.9 µM [inhibitor, partial curve]"}, {"smiles": "CCOc1ccc(C(=O)c2cn(CC(=O)Nc3ccc(F)cc3)c3cc4c(cc3c2=O)OCO4)cc1", "activity change, negative = inhibition": "inactive: -6.77%"}, {"smiles": "COc1ccc(N(CC(=O)NCc2ccccc2Cl)S(=O)(=O)c2c(C)nn(C)c2C)cc1", "activity change, negative = inhibition": "inactive: -9.27%"}, {"smiles": "COc1ccc(S(=O)(=O)N(C)CC(=O)Nc2cccc(C(C)=O)c2)cc1C", "activity change, negative = inhibition": "inactive: 7.48%"}, {"smiles": "CCOC(=O)c1c(S(=O)(=O)NCC(=O)N2CCN(c3ccccc3)CC2)c(C)n(C)c1C", "Potency": "inactive"}, {"smiles": "Cc1ccc(NC(=O)CSc2nnc(NC(=O)c3ccco3)s2)cc1", "Potency": "active: 21.3 µM"}, {"smiles": "CCCn1c2ccccc2c2cnn(CC(=O)N(C)c3ccccc3CC)c(=O)c21", "Potency": "inconclusive: 13.5 µM [inhibitor, partial curve, poor fit]"}, {"smiles": "O=C(COC(=O)c1ccccc1-n1cnnn1)c1ccccc1", "Potency": "active: 19 µM"}, {"smiles": "O/N=C/c1cc(Br)ccc1OCc1cccc(F)c1", "Potency": "inconclusive: 26.9 µM [inhibitor, single point]"}, {"smiles": "Cc1nc2c3ccccc3nc(NNC(=O)CCC(=O)NCCN3CCN(c4ccccc4)CC3)n2n1", "activity change, negative = inhibition": "inactive: 6.33%"}, {"smiles": "Cc1ccnc(NC(=O)CCCc2ccccc2)c1", "Potency": "active: 23.9 µM"}, {"smiles": "COc1cccc(-c2ccc3c(N)c(C(=O)NC4CC4)sc3n2)c1", "Potency": "active: 3.01 µM"}, {"smiles": "CN(C)/C=C(\\C#N)C(=O)N/N=C/c1ccc(Cl)cc1", "Potency": "active: 16.9 µM"}, {"smiles": "CCN(CC)CCCNC(=O)CSc1nc(C)cc(C)n1", "activity change, negative = inhibition": "inactive: -1.08%"}, {"smiles": "O=C(NN1CCOCC1)c1cc(-c2ccc(Br)s2)nc2ccccc12", "activity change, negative = inhibition": "inactive: -9.98%"}, {"smiles": "COc1cc(C(=O)NNC(=O)CSc2nnc3ccccn23)cc(OC)c1OC", "activity change, negative = inhibition": "inactive: 2.2%"}, {"smiles": "O=C(COc1ccc(Cl)cc1Cl)Nc1cccc(-c2ccc(N3CCOCC3)nn2)c1", "Potency": "active: 0.426 µM"}, {"smiles": "O=C(CSc1nccc(=O)[nH]1)Nc1cccc2ccccc12", "activity change, negative = inhibition": "inactive: 3.99%"}, {"smiles": "COc1ccccc1-n1ccnc(SCC(=O)NCc2ccccc2Cl)c1=O", "Potency": "inconclusive: 19 µM [inhibitor, partial curve]"}, {"smiles": "CCCN(CCC)C(=O)Cn1c(=O)n(-c2ccccc2)c(=O)c2c3c(sc21)CCCC3", "activity change, negative = inhibition": "inactive: -3.18%"}, {"smiles": "CCOc1ccc2nc(N3CCCC(C(=O)NCC4CCCO4)C3)sc2c1", "note": "(stereo unspecified)", "Potency": "active: 4.78 µM"}, {"smiles": "Cc1cc(C)c2c(N=NN3CCCCC3)[nH]nc2n1", "Potency": "active: 19 µM"}, {"smiles": "CC(C)CC1NC(=O)N(CC(=O)N2CCCc3ccccc32)C1=O", "note": "(stereo unspecified)", "activity change, negative = inhibition": "inactive: 2.33%"}, {"smiles": "O=C(N/N=C/c1ccco1)c1cc2ccccc2o1", "Potency": "active: 16.9 µM"}, {"smiles": "COC(=O)c1cc2c(ccn2-c2ccc(F)cc2)n1Cc1ccc(OC)cc1", "Potency": "inconclusive: 13.5 µM [inhibitor, partial curve, poor fit]"}, {"smiles": "S=c1[nH]cc(-c2ccccc2)[nH]1", "Potency": "inconclusive: 26.9 µM [inhibitor, single point]"}, {"smiles": "CNC(=O)/C(C#N)=C/c1cccc(Oc2ccccc2)c1", "Potency": "active: 8.49 µM"}, {"smiles": "O=CNCCCc1nc2ccccc2n1CCc1ccccc1", "activity change, negative = inhibition": "inactive: 0.174%"}, {"smiles": "CCn1c(COc2cccc(OC)c2)nnc1SCC(=O)N1CCOCC1", "activity change, negative = inhibition": "inactive: 6.62%"}, {"smiles": "COC(=O)c1ccc(NC(=O)CSc2nnc(CNc3ccc(OC)cc3)n2C)cc1", "Potency": "inconclusive: 26.9 µM [inhibitor, partial curve, poor fit]"}, {"smiles": "CCCC(=O)Nc1ccc2oc(-c3cncc(Br)c3)nc2c1", "Potency": "inconclusive: 3.01 µM [inhibitor, full curve]"}, {"smiles": "Cc1ccc(-c2cnc(SCCNC(=O)c3ccco3)[nH]2)cc1", "Potency": "inconclusive: 37.9 µM [inhibitor, partial curve, poor fit]"}, {"smiles": "O=C(OCC(=O)C12CC3CC(CC(C3)C1)C2)c1ccccn1", "Potency": "inconclusive: 23.9 µM [inhibitor, single point]"}, {"smiles": "O=C(O)CC1(CC(=O)Nc2ccc3sccc3c2)CCCCC1", "Potency": "inconclusive: 23.9 µM [inhibitor, single point]"}, {"smiles": "COc1ccc(C(C)(C)C)cc1NC(=O)COC(=O)C(C)C", "Potency": "inconclusive: 26.9 µM [inhibitor, partial curve, poor fit]"}, {"smiles": "O=S(=O)(c1ccccc1)c1nc(-c2ccc(Cl)cc2Cl)oc1N1CCCCC1", "activity change, negative = inhibition": "inactive: -0.863%"}, {"smiles": "CCOC(=O)c1cnc(SCC(=O)c2ccc(Cl)cc2)nc1N", "activity change, negative = inhibition": "inactive: -2.39%"}, {"smiles": "C/C(=N\\NC(=O)c1cccnc1)c1c(O)cc(C)oc1=O", "Potency": "inconclusive: 37.9 µM [inhibitor, partial curve, poor fit]"}, {"smiles": "Cc1nc(-c2ccc(Cl)cc2)sc1CCNC(=O)Cc1ccc(F)cc1", "Potency": "inconclusive: 13.5 µM [inhibitor, partial curve, poor fit]"}, {"smiles": "Cc1cc(=O)n2cccc(O)c2n1", "Potency": "inconclusive: 0.0076 µM [inhibitor, partial curve, poor fit]"}, {"smiles": "Cc1ccc2nc(-c3ccc(NS(=O)(=O)c4c(C)n(C)c(=O)n(C)c4=O)cc3)sc2c1", "Potency": "active: 1.9 µM"}, {"smiles": "Cc1ccc(S(=O)(=O)/N=C(/NC(=S)Nc2ccccc2)c2ccccc2)cc1", "Potency": "active: 4.78 µM"}, {"smiles": "COc1ccc(NC(=O)c2c(-c3ccc(C)cc3)nnc3ccccc23)cc1Cl", "activity change, negative = inhibition": "inactive: -6.88%"}, {"smiles": "COc1ccccc1C(=O)Nc1nnc(SCc2cc(=O)c3cc(Cl)ccc3[nH]2)s1", "activity change, negative = inhibition": "inactive: -8.13%"}, {"smiles": "CSCCC(=O)Nc1ccc(C(C)=O)cc1", "Potency": "inconclusive: 26.9 µM [inhibitor, single point]"}, {"smiles": "CN(C)CCCSc1nc2ccccc2s1", "Potency": "inconclusive: 21.3 µM [inhibitor, single point]"}, {"smiles": "c1ccc(-c2nc(C3CCCCC3)no2)cc1", "Potency": "active: 16.9 µM"}, {"smiles": "CCOC(=O)Cc1csc(NC(=O)C(C)(C)C)n1", "Potency": "inconclusive: 30.1 µM [inhibitor, partial curve, poor fit]"}, {"smiles": "Cc1noc(NS(=O)(=O)c2ccc(NC(=O)CSc3nc4ccccc4s3)cc2)c1C", "Potency": "inconclusive: 30.1 µM [inhibitor, partial curve, poor fit]"}]}]}
